# Out of some 360,000 compounds screened, about 6,000 (1.7%) were called active. Inconclusive means that the source gave no clear call. Such entries were picked first, then a sample of the others. Calls come from the whole dose curve; as a rule, active = well fitted cell-killing curve with a large enough effect; inconclusive = small, poorly fitted or top-dose-only effect, or effect the other way; inactive = flat fitted curve, though single readings scatter. No potency is given beside an inconclusive call; the fits are too rough.
# Experiment: qHTS for induction of synthetic lethality in tumor cells producing 2HG: qHTS for the HT-1080-NT fibrosarcoma cell line;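 note: NT is the 2HG producing partner of a matched IDH1 knockdown line; nearly all actives have a fitted effect of over 55% in size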;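 for activity, negative = less viability: 0% = DMSO-treated cells and -100% = media-only wells without cells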
# Conditions: HT-1080-NT fibrosarcoma viability, CellTiter-Glo ATP luminescence, 48 h; activity, negative = less viability: at 46.1 µM (top of the series) unless noted
# Method in brief: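 Compounds were tested in concentration-response format on HT-1080-NT cells for 48 hours at 37 degrees C. Cell viability came from CellTiter-Glo luminescence; curves were classified by r2, response magnitude and activity.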
# Potency is the fitted concentration of half-maximal effect; tags give direction and shape of the fitted curve.
SMILES,Potency,"activity, negative = less viability"
O=C(Cn1nnc(-c2ccccc2NC(=O)c2ccccc2F)n1)NC1CCCC1,"inconclusive [rising, single point]",
CCOc1ccc(S(=O)(=O)NCc2ccncc2)cc1NC(=O)c1ccccc1,active: 3.66 µM,
CCOC(=O)c1cc(NC(=O)Nc2nc3ccccc3s2)c(C)nc1C,,inconclusive: 31.5%
COc1ccccc1CCC(=O)N1CCN(S(=O)(=O)c2cc(C(F)(F)F)ccc2Cl)CC1,inactive,
Cc1ccc(NC(=O)NC2CCN(S(=O)(=O)c3ccc(F)cc3)CC2)cc1,"inconclusive [cytotoxic, single point]",
CCOC(=O)CS(=O)(=O)c1nc(-c2ccccc2)cc(C(F)(F)F)n1,active: 9.2 µM,
CS(=O)(=O)Nc1ccccc1C(=O)Nc1cccc(Cl)c1,"inconclusive [cytotoxic, partial curve, poor fit]",
c1ccc(-c2cn3c4c(sc3n2)CCCC4)cc1,active: 11.2 µM,
CC(=O)c1ccc(NC(=O)COC(=O)CCN2C(=O)c3cccc([N+](=O)[O-])c3C2=O)cc1,inactive,
CCCCNc1c(-c2ccc(Sc3ccc(OC)cc3)cc2)nc2cc(C)ccn12,"inconclusive [cytotoxic, partial curve]",
O=C(C1=C[C@@H](c2ccccc2)C[C@@H](OCc2ccc(CO)cc2)O1)N1CCN(Cc2ccc3c(c2)OCO3)CC1,"inconclusive [cytotoxic, single point]",
CC1CC(C)CN(C(=S)SCc2nc(N)nc(Nc3ccccc3)n2)C1 (centres undefined),"inconclusive [cytotoxic, single point]",
COc1ccccc1NC(=O)Cn1cnc2c(oc3nc4c(cc32)CCCC4)c1=O,"inconclusive [rising, single point]",
COC(=O)[C@@]1(Cc2ccc(OC)cc2)[C@@H]2C(=CC(=O)[C@H]2CC(=O)C(=O)N2CCCC2)CN1C(=O)c1ccccc1,"inconclusive [cytotoxic, single point]",
COc1ccc(C(=O)N2CCN(c3ccc(NC(=O)c4cccs4)cc3)CC2)cc1,inactive,
CC(=O)Nc1ccc2nc(NC(=O)c3ccc([N+](=O)[O-])o3)sc2c1,"inconclusive [cytotoxic, full curve]",
NC(N)=N/N=C/c1ccc2cccc(OCc3ccccc3)c2n1,active: 23.1 µM,
Cc1noc(NS(=O)(=O)c2ccc(NC(=O)Nc3ccc(Cl)c(Cl)c3)cc2)c1C,"inconclusive [cytotoxic, single point]",
Cc1cc(C)n(CC(=O)n2c3c(c4ccccc42)CCCC3)n1,"inconclusive [cytotoxic, single point]",

# — PubChem BioAssay AID686970 (National Center for Advancing Translational Sciences (NCATS), 2013)
